From the supplement of paper PMC10126150 come the findings set out here.

Values marked as one replicate rest on one cluster of the flow cell; about a third of the high ones do not repeat.
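Also: ATP exposure 15 min at 22 °C before imaging.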

The subject of the first data set is ATP. Put plainly: switch fluorescence ratio, 500 uM ATP over buffer (Cy3 cluster intensity, sum of 5 cycles each) (fold (ratio)); higher = stronger signal-on switching upon ATP binding. The conditions noted are these: aptamer strand: ATP DNA aptamer (quencher-CACCTGGGGGAGTATTGCGGAGGAAGG + anchor), 100 nM annealed; ATP concentration: 500 uM; one replicate. In short, it runs like this: (§1)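 The quencher-labelled ATP aptamer, at 100 nM, was annealed to Cy3-labelled switching-strand clusters on a modified Illumina MiSeq flow-cell. The clusters were imaged in selection buffer, then after 15 min with 500 uM ATP at 22 °C, and this buffer/ATP cycle ran five times with NaOH stripping and re-annealing between runs. Per-cluster fluorescence ratios, summed target-cycle over summed buffer-cycle Cy3 intensity, were averaged per switch-domain sequence. Clusters outside 100-1000 RFU were excluded.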
With “TCGTCGGCAGCGTCAGATGTGTATAAGAGACAGTTTTTTTTTTTTTTTTTTTTTTTTTTTTC”, the switch fluorescence ratio was determined as 0.985.

A further data set concerns ATP. Put plainly: switch fluorescence ratio, 500 uM ATP over buffer (Cy3 cluster intensity, sum of 5 cycles each) (fold (ratio)); higher = stronger signal-on switching upon ATP binding; sequences stand for … in TCGTCGGCAGCGTCAGATGTGTATAAGAGACAGTTTTTTTTTTTTTTTTTTTTTTTTT…TC. The conditions noted are these: aptamer strand: ATP DNA aptamer (quencher-CACCTGGGGGAGTATTGCGGAGGAAGG + anchor), 100 nM annealed; ATP concentration: 500 uM; one replicate. In short, it runs like this: as §1
In the case of AAGTAGCATT, the switch fluorescence ratio was 0.964.

As to GGTTCATCTA, the switch fluorescence ratio came out at 0.978.

ACCTGTCGCA: the switch fluorescence ratio is 1.39.

Turning to GGTGATAACG, the switch fluorescence ratio stood at 0.959.

ACGATGCCA: the switch fluorescence ratio stood at 0.989.

For the sequence TAACTATTAG, the switch fluorescence ratio was 0.991.

With TCTTACTTGC, the switch fluorescence ratio was determined as 1.01.

Consider TAACGTGTTG, for which the switch fluorescence ratio stood at 1.02.

On to TGGAGTTCAT, for which the switch fluorescence ratio amounted to 0.981.

For GGCACCTGTG, the switch fluorescence ratio came out at 1.03.

For CGTCCTTTGA, the switch fluorescence ratio came out at 1.04.

In the case of AGAGTATTGA, the switch fluorescence ratio worked out at 1.01.

Take TTACTCTGGA: the switch fluorescence ratio turned out to be 0.998.

Consider TGCCTTGGTA, for which the switch fluorescence ratio was 1.03.

On to TTTGCCTCTA, for which the switch fluorescence ratio came to 1.03.

Take TATTGTTGGA: the switch fluorescence ratio came to 0.991.

In the case of GGAAAATAAC, the switch fluorescence ratio worked out at 1.01.

On to GGACACACTC, for which the switch fluorescence ratio was 1.29.

For the sequence ATCCTGATGC, the switch fluorescence ratio came out at 1.06.

Turning to GGACCCTTGG, the switch fluorescence ratio worked out at 1.01.

For TCATGCCACG, the switch fluorescence ratio came to 1.07.

For the sequence TTTTAAAA, the switch fluorescence ratio is 0.964.

Take CCATGTCTAT: the switch fluorescence ratio came out at 0.999.

With GACAAGGGTG, the switch fluorescence ratio turned out to be 1.06.

Take AAACGTGTAC: the switch fluorescence ratio is 1.16.

With GAGGCCAATG, the switch fluorescence ratio came out at 1.01.

On to GATTGGTATA, for which the switch fluorescence ratio turned out to be 0.98.

For TCTCGGGAAA, the switch fluorescence ratio turned out to be 1.04.

As to AGTATCGGT, the switch fluorescence ratio stood at 0.954.

As to GCCTTATGTT, the switch fluorescence ratio was 0.975.

For the sequence GGACAGGTTC, the switch fluorescence ratio turned out to be 0.97.

CCCCAATTGT: the switch fluorescence ratio was 1.09.

Turning to AGTAGCTCTT, the switch fluorescence ratio stood at 1.04.

Consider GACGGCGCAA, for which the switch fluorescence ratio stood at 4.19.

TGAGACGGAT: the switch fluorescence ratio is 0.988.

On to TGCGTTAATT, for which the switch fluorescence ratio was 1.03.

For the sequence TAGAGGGATA, the switch fluorescence ratio turned out to be 1.01.

For ACATCAGGC, the switch fluorescence ratio came to 1.09.

Turning to ATATGGGTCA, the switch fluorescence ratio came out at 0.97.

For the sequence GTTCAGGACC, the switch fluorescence ratio was 0.985.

In the case of TTTGCATTGA, the switch fluorescence ratio was 1.02.

For TGCATGGGCA, the switch fluorescence ratio amounted to 0.989.

TGACATCTGA: the switch fluorescence ratio was 0.984.

As to TTCAAACTCG, the switch fluorescence ratio was 1.05.

As for ATGTATTGG, the switch fluorescence ratio came to 1.03.

With AATTTGGACA, the switch fluorescence ratio came out at 1.03.

Take GCTGAACTCT: the switch fluorescence ratio worked out at 1.05.

In the case of ATTTTATGTT, the switch fluorescence ratio came to 0.985.

For the sequence TACCGAGTTC, the switch fluorescence ratio is 1.03.

Regarding AATTTTTGGC, the switch fluorescence ratio is 0.96.

For the sequence TGAATAGA, the switch fluorescence ratio amounted to 0.972.

As for CAGTCCGATT, the switch fluorescence ratio is 0.954.

GGATCGGGGT: the switch fluorescence ratio came out at 0.998.

Regarding ACAAGGTCAG, the switch fluorescence ratio was 1.04.

Turning to GATTATCCAA, the switch fluorescence ratio was found to be 1.01.

Take CCGAGACGGA: the switch fluorescence ratio was 1.

As to TCCATCCTAA, the switch fluorescence ratio came out at 1.02.

Consider CGGGTTGGAG, for which the switch fluorescence ratio worked out at 1.01.
